Measured values published in patent publication US20260013501A1, “HERBICIDAL DERIVATIVES” (SYNGENTA CROP PROTECTION AG, priority 2022, published 2026).
At least one read-out could not be matched to a standard name with certainty.

Columns and labels:
Format in all cases: in vivo
Conditions in all cases: evaluated after 13 days
[1] = system: Ipomoea hederacea (IPOHE); assay: Pre-emergence Test (Table B1), IPOHE
Setaria faberi (SETFA) [2] = assay: Pre-emergence Test (Table B1), SETFA
[3] = system: Amaranthus retoflexus (AMARE); assay: Pre-emergence Test (Table B1), AMARE
Setaria faberi (SETFA) [4] = assay: Post-emergence Test (Table B2), SETFA; set-up: key: five-point scale: 5=81-100%, 4=61-80%, 3=41-60%, 2=21-40%, 1=0-20% damage
Method in brief: (§1)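 Score: % damage at 13 d on a 5-point scale (5=81-100%; 4=61-80%; 3=41-60%; 2=21-40%; 1=0-20%). Seeds sown in pots, sprayed with test article in acetone/water 50:50 + 0.5% Tween 20; rate in g/ha. Glasshouse 24/16 °C, 14 h light, 65% RH, watered twice daily.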

[5] = system: Amaranthus palmeri (AMAPA); assay: Pre-emergence Test (Table B1), AMAPA
[6] = system: Echinochloa crus-galli (ECHCG); assay: Post-emergence Test (Table B2), ECHCG; set-up: key: 5-point damage scale: 5=81-100%, 4=61-80%, 3=41-60%, 2=21-40%, 1=0-20%
Method in brief: as §1

Zea mays (ZEAMX) [7] = assay: Post-emergence Test (Table B2), ZEAMX; set-up: key: 5-point damage scale: 5=81-100%, 4=61-80%, 3=41-60%, 2=21-40%, 1=0-20%
Method in brief: as §1

[8] = system: Amaranthus palmeri (AMAPA); assay: Post-emergence Test (Table B2), AMAPA; set-up: key: five-point scale: 5=81-100%, 4=61-80%, 3=41-60%, 2=21-40%, 1=0-20% damage
Method in brief: as §1

[9] = system: Amaranthus retoflexus (AMARE); assay: Post-emergence Test (Table B2), AMARE; set-up: key: five-point scale: 5=81-100%, 4=61-80%, 3=41-60%, 2=21-40%, 1=0-20% damage
Method in brief: as §1

Zea mays (ZEAMX) [10] = assay: Pre-emergence Test (Table B1), ZEAMX
[11] = system: Ipomoea hederacea (IPOHE); assay: Post-emergence Test (Table B2), IPOHE; set-up: key: five-point scale: 5=81-100%, 4=61-80%, 3=41-60%, 2=21-40%, 1=0-20% damage
Method in brief: as §1

[12] = system: Echinochloa crus-galli (ECHCG); assay: Pre-emergence Test (Table B1), ECHCG

SMILES	Pre-emergence Test, percentage damage caused to the plant (five-point scale), IPOHE ([1]; Rate 1000 g/Ha)	Pre-emergence Test, percentage damage caused to the plant (five-point scale), SETFA (Setaria faberi (SETFA) [2]; Rate 1000 g/Ha)	Pre-emergence Test, percentage damage caused to the plant (five-point scale), AMARE ([3]; Rate 1000 g/Ha)	percentage damage caused to the plant, SETFA (Setaria faberi (SETFA) [4]; rate 1000 g/Ha)	Pre-emergence Test, percentage damage caused to the plant (five-point scale), AMAPA ([5]; Rate 1000 g/Ha)	percentage damage caused to the plant, ECHCG ([6]; rate 1000 g/Ha)	percentage damage caused to the plant, ZEAMX (Zea mays (ZEAMX) [7]; rate 1000 g/Ha)	percentage damage caused to the plant, AMAPA ([8]; rate 1000 g/Ha)	percentage damage caused to the plant, AMARE ([9]; rate 1000 g/Ha)	Pre-emergence Test, percentage damage caused to the plant (five-point scale), ZEAMX (Zea mays (ZEAMX) [10]; Rate 1000 g/Ha)	percentage damage caused to the plant, IPOHE ([11]; rate 1000 g/Ha)	Pre-emergence Test, percentage damage caused to the plant (five-point scale), ECHCG ([12]; Rate 1000 g/Ha)	further results
CCn1c(Cc2ccc(Cl)cn2)cc(=O)c(C(=O)O)c1-c1ccc(Cl)c(Cl)c1 [Compound 5, 6-[(5-chloro-2-pyridyl)methyl]-2-(3,4-dichlorophenyl)-1-ethyl-4-oxo-pyridine-3-carboxylic acid]	2 (2=21-40%)	5 (5=81-100%)	1 (1=0-20%)	3 (3=41-60%)	1 (1=0-20%)	3 (3=41-60%)	4 (4=61-80%)	2 (2=21-40%)	2 (2=21-40%)	2 (2=21-40%)	2 (2=21-40%)	4 (4=61-80%)	–
CCn1c(Cc2ccc(OC)cc2)cc(=O)c(C(=O)O)c1-c1ccc(Cl)c(Cl)c1 [Compound 13, 2-(3,4-dichlorophenyl)-1-ethyl-6-[(4-methoxyphenyl)methyl]-4-oxo-pyridine-3-carboxylic acid]	1 (1=0-20%)	1 (1=0-20%)	1 (1=0-20%)	5 (5=81-100%)	3 (3=41-60%)	4 (4=61-80%)	4 (4=61-80%)	5 (5=81-100%)	5 (5=81-100%)	1 (1=0-20%)	2 (2=21-40%)	1 (1=0-20%)	–
CCn1c(Cc2ccccc2F)cc(=O)c(C(=O)O)c1-c1ccc(Cl)c(Cl)c1 [Compound 14, 2-(3,4-dichlorophenyl)-1-ethyl-6-[(2-fluorophenyl)methyl]-4-oxo-pyridine-3-carboxylic acid]	4 (4=61-80%)	5 (5=81-100%)	2 (2=21-40%)	4 (4=61-80%)	3 (3=41-60%)	4 (4=61-80%)	2 (2=21-40%)	2 (2=21-40%)	3 (3=41-60%)	2 (2=21-40%)	4 (4=61-80%)	3 (3=41-60%)	–
CCn1c(Cc2cccc(OC)c2F)cc(=O)c(C(=O)O)c1-c1ccc(Cl)c(Cl)c1 [Compound 78, 2-(3,4-dichlorophenyl)-1-ethyl-6-[(2-fluoro-3-methoxy-phenyl)methyl]-4-oxo-pyriidne-3-carboxylic acid]	1 (1=0-20%)	3 (3=41-60%)	2 (2=21-40%)	2 (2=21-40%)	2 (2=21-40%)	1 (1=0-20%)	1 (1=0-20%)	4 (4=61-80%)	2 (2=21-40%)	2 (2=21-40%)	3 (3=41-60%)	3 (3=41-60%)	–
CCn1c(Cc2ccc(F)cc2F)cc(=O)c(C(=O)O)c1-c1ccc(Cl)c(Cl)c1 [Compound 85, 2-(3,4-dichlorophenyl)-6-[(2,4-difluorophenyl)methyl]-1-ethyl-4-oxo-pyridine-3-carboxylic acid]	1 (1=0-20%)	5 (5=81-100%)	3 (3=41-60%)	4 (4=61-80%)	3 (3=41-60%)	4 (4=61-80%)	3 (3=41-60%)	4 (4=61-80%)	4 (4=61-80%)	2 (2=21-40%)	2 (2=21-40%)	4 (4=61-80%)	–
Cn1c(Cc2cnccn2)cc(=O)c(C(=O)O)c1-c1ccc(Cl)c(Cl)c1 [Compound 101, 2-(3,4-dichlorophenyl)-1-methyl-4-oxo-6-(pyrazin-2-ylmethyl)pyridine-3-carboxylic acid]	–	–	–	–	–	–	–	–	–	–	–	–	Pre-emergence Test, percentage damage caused to the plant (five-point scale), IPOHE ([1]; Rate 250 g/Ha): 4 (4=61-80%); Pre-emergence Test, percentage damage caused to the plant (five-point scale), SETFA (Setaria faberi (SETFA) [2]; Rate 250 g/Ha): 4 (4=61-80%); Pre-emergence Test, percentage damage caused to the plant (five-point scale), AMARE ([3]; Rate 250 g/Ha): 2 (2=21-40%); percentage damage caused to the plant, SETFA (Setaria faberi (SETFA) [4]; rate 250 g/Ha): 4 (4=61-80%); Pre-emergence Test, percentage damage caused to the plant (five-point scale), AMAPA ([5]; Rate 250 g/Ha): 3 (3=41-60%); percentage damage caused to the plant, ECHCG ([6]; rate 250 g/Ha): 4 (4=61-80%); percentage damage caused to the plant, ZEAMX (Zea mays (ZEAMX) [7]; rate 250 g/Ha): 2 (2=21-40%); percentage damage caused to the plant, AMAPA ([8]; rate 250 g/Ha): 2 (2=21-40%); percentage damage caused to the plant, AMARE ([9]; rate 250 g/Ha): 3 (3=41-60%); Pre-emergence Test, percentage damage caused to the plant (five-point scale), ZEAMX (Zea mays (ZEAMX) [10]; Rate 250 g/Ha): 1 (1=0-20%); percentage damage caused to the plant, IPOHE ([11]; rate 250 g/Ha): 3 (3=41-60%); Pre-emergence Test, percentage damage caused to the plant (five-point scale), ECHCG ([12]; Rate 250 g/Ha): 1 (1=0-20%)
CCn1c(Cc2ccc(C)nn2)cc(=O)c(C(=O)O)c1-c1ccc(Cl)c(Cl)c1 [Compound 139, 2-(3,4-dichlorophenyl)-1-ethyl-6-[(6-methylpyridazin-3-yl)methyl]-4-oxo-pyridine-3-carboxylic acid]	–	–	–	–	–	–	–	–	–	–	–	–	Pre-emergence Test, percentage damage caused to the plant (five-point scale), IPOHE ([1]; Rate 250 g/Ha): 1 (1=0-20%); Pre-emergence Test, percentage damage caused to the plant (five-point scale), AMARE ([3]; Rate 250 g/Ha): 1 (1=0-20%); percentage damage caused to the plant, SETFA (Setaria faberi (SETFA) [4]; rate 250 g/Ha): 1 (1=0-20%); Pre-emergence Test, percentage damage caused to the plant (five-point scale), AMAPA ([5]; Rate 250 g/Ha): 2 (2=21-40%); percentage damage caused to the plant, AMAPA ([8]; rate 250 g/Ha): 2 (2=21-40%); percentage damage caused to the plant, AMARE ([9]; rate 250 g/Ha): 1 (1=0-20%); Pre-emergence Test, percentage damage caused to the plant (five-point scale), ZEAMX (Zea mays (ZEAMX) [10]; Rate 250 g/Ha): 1 (1=0-20%); percentage damage caused to the plant, IPOHE ([11]; rate 250 g/Ha): 4 (4=61-80%); Pre-emergence Test, percentage damage caused to the plant (five-point scale), ECHCG ([12]; Rate 250 g/Ha): 1 (1=0-20%)
